# Experimental data from PubChem BioAssay AID1479 (National Center for Advancing Translational Sciences (NCATS), 2009).
# Among all 280,000 compounds or so, about 820 (0.29%) were called active. Inconclusive means that the source gave no clear call. Such entries were picked first, then a sample of the others. The call rests on the fitted dose curve; in most records, active means well fitted curve in either direction with a large enough effect; inconclusive means small, poorly fitted or top-dose-only effect; inactive means flat fitted curve, though single readings scatter. Potencies of inconclusive entries are left out as doubtful fits.
# Experiment: Total Fluorescence Counterscreen for Inhibitors of the Interaction of Thyroid Hormone Receptor and Steroid Receptor Coregulator 2
# Details: TRb/SRC2 Texas Red total fluorescence interference; series mostly up to 106 µM; fluorescence change, negative = quenching: at the top concentration
# Procedure, shortened: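 Human TRb ligand-binding domain at 0.6 uM with 20 nM Texas Red SRC2 peptide in Tris buffer containing 1 uM T3 and 5% DMSO, incubated with compound 5 h at ambient temperature. Total fluorescence (555/632 nm) calculated as parallel + 2 × perpendicular.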
# On the % scale 0 is the no-effect control and ±100 the full control effect; potency means the concentration at half of the fitted maximal effect; tags describe the fitted curve by direction and shape or compound fluorescence and quenching.
SMILES,Potency,"fluorescence change, negative = quenching"
Cc1ccc(NC(=O)C(=O)NCCc2sc(-c3ccc(Cl)cc3)nc2C)cc1C,"inconclusive [falling, full curve, poor fit]",–
CN(c1ccccc1)S(=O)(=O)c1nnc(NC(=O)C2CCCCC2)s1,"inconclusive [falling, full curve, poor fit]",–
O=C(NCCc1cccs1)c1ccc(Cn2c(SCc3ccc(F)cc3)nc3cccnc32)cc1,–,inactive: -12.2%
CCCNC(=O)Cn1c(=O)n(C)c2ccccc21,active: 44.7 µM [fluorescent],–
COC(=O)C1=C(c2ccccc2)c2ccccc2S(=O)(=O)N1CC(=O)Nc1cccc(C(C)=O)c1,"inconclusive [quencher, partial curve]",–
COc1cc(/C=N/NC(=O)[C@H](Cc2c[nH]c3ccccc23)NC(=O)OCC(C)C)cc([N+](=O)[O-])c1O,"inconclusive [falling, single point]",–
CCOC(=O)NC(NCc1cccc(C(F)(F)F)c1)(C(F)(F)F)C(F)(F)F,"inconclusive [falling, partial curve, poor fit]",–
CN(C)S(=O)(=O)c1cccc(NC(=S)N/N=C/C(=O)c2ccccc2)c1,active: 4.47 µM [quencher],–
O=C(c1ccc2c(c1)N(Cc1ccccc1F)C(=O)c1ccccc1S2(=O)=O)N1CCOCC1,"inconclusive [quencher, full curve]",–
O=C(CCCCCn1c(=O)c2sccc2n(CC(=O)Nc2cccc(Cl)c2)c1=O)NCc1ccc2c(c1)OCO2,"inconclusive [falling, full curve, poor fit]",–
CCCN(CC(=O)Nc1ccc(C)cc1Br)CC(=O)Nc1ccc(F)c(F)c1F,"inconclusive [falling, partial curve, poor fit]",–
Cc1ccc(NC(=O)c2nn(C)c3c2CS(=O)(=O)c2ccccc2-3)c(Cl)c1,"inconclusive [quencher, partial curve]",–
Cc1ccc(NC(=O)CCn2c(=O)c3cccn3c3ccccc32)c(Cl)c1,"inconclusive [falling, full curve, poor fit]",–
COc1cccc(CNC(=O)CCn2c(=O)c3cccn3c3ccc(F)cc32)c1OC,"inconclusive [falling, partial curve, poor fit]",–
Cc1ccc(S(=O)(=O)c2nc(-c3cccs3)oc2N2CCCCC2)cc1,"inconclusive [falling, full curve, poor fit]",–
CCc1cc(C(=O)NCc2ccc(F)cc2)no1,"inconclusive [falling, partial curve, poor fit]",–
O=c1/c(=C/c2ccco2)sc2nc(-c3ccccc3Br)nn12,"inconclusive [quencher, partial curve]",–
CC(C)Oc1ccc(CNC(=O)c2ccc3c(c2)N(C)C(=O)C2CCCCN32)cc1 (configuration not stated),"inconclusive [falling, partial curve, poor fit]",–
Cc1ccc(N2CC(NC(=O)C3CCCC3)CC2=O)cc1C (configuration not stated),–,inactive: -0.466%
CCNC(=O)C1CCCN(c2nn3cc(-c4ccc(C)cc4)nc3s2)C1 (configuration not stated),"inconclusive [quencher, full curve]",–
CCn1c(CSc2ncn[nH]2)nc2cc(C(=O)O)ccc21,"inconclusive [fluorescent, partial curve]",–

SMILES,Potency,"fluorescence change, negative = quenching"
COc1ccc(OC)c(/C=C2\S/C(=N/NC(=O)c3ccc4ccccc4c3)NC2=O)c1,"inconclusive [rising, single point]",–
O=C(Nc1ccc2c(c1)OCCO2)c1cc2sccc2n1Cc1ccccc1,–,inactive: -1.81%
COc1ccc2nc(-n3c(O)c(C4=c5ccccc5=NC4=O)[nH]c3=S)sc2c1,"inconclusive [quencher, partial curve]",–
Cc1ccc2c(c1)c(=O)c1ccccc1n2CCCC(=O)Nc1ccc(C)c(C)c1,"inconclusive [quencher, partial curve]",–
Cc1ccc(CCNC(=O)c2sc3nc4n(c(=O)c3c2C)CCCC4)cc1,"inconclusive [falling, full curve, poor fit]",–
CCN1CCc2c(sc(-n3cccc3)c2C(CCC(C)C)NC(=O)NCCC(=O)OC)C1 (configuration not stated),"inconclusive [quencher, full curve]",–
Cc1cccc(C)c1OCC(O)CN(Cc1ccccc1O)C1CCCCC1 (configuration not stated),–,inactive: -1.19%
CCOc1cc(/C=C2\C(=O)N(c3nc(-c4ccc(Br)cc4)cs3)N=C2c2ccccc2)ccc1O,active: 28.2 µM [quencher],–
COc1cc(C(=O)NCc2nc(-c3ccc(Cl)cc3)no2)cc(OC)c1OC,"inconclusive [falling, partial curve, poor fit]",–
COc1cccc(-c2nc(CS(=O)(=O)CC(=O)Nc3ccc(C)c(Cl)c3)c(C)o2)c1,"inconclusive [falling, partial curve, poor fit]",–
CCN(CC)CCCC(C)n1c(-c2ccccc2)nc2c(NCc3ccccc3)nc(C)nc21 (configuration not stated),–,inactive: -0.718%
Cn1c(NCCN)nc2c1c(=O)n(Cc1ccccc1)c(=O)n2C,"inconclusive [falling, partial curve, poor fit]",–
CCN(CC)c1ccc(NC(=O)C2CCN(S(=O)(=O)c3c(C)noc3/C=C/c3ccccc3F)CC2)c(C)c1,"inconclusive [falling, partial curve, poor fit]",–
Cc1ccc(S(=O)(=O)N2CCCc3cc(NC(=O)c4ccc(Cl)cc4)ccc32)cc1,–,inactive: 0.0241%
COc1ccccc1C(=O)NC(=O)Nc1ccc(-c2cc(C(F)(F)F)nn2-c2ccccc2)cc1,"inconclusive [quencher, full curve]",–
Cc1ccc2occ(CC(=O)Nc3c(C)cccc3C)c2c1,"inconclusive [quencher, partial curve]",–
Brc1ccc(C2Nc3cccc4cccc(c34)N2)o1,active: 2.82 µM [quencher],–
Cc1onc(-c2c(F)cccc2Cl)c1C(=O)NC1C(=O)N2C1SC(C)(C)C2C(=O)O (configuration not stated),–,inactive: -1.99%
CCc1c(C)nc2c(OC)cccc2c1SCCC(=O)O,active: 0.794 µM [quencher],–
CCn1c(CSc2nnc(-c3cccnc3)n2-c2ccccc2C)nc2cc(C(=O)O)ccc21,active: 39.8 µM [fluorescent],–
COc1ccc(OC)c(NC(=O)c2nnn(CC(=O)Nc3ccc(C(C)C)cc3)c2N)c1,"inconclusive [falling, partial curve, poor fit]",–

SMILES,Potency,"fluorescence change, negative = quenching"
COc1ccc(NC(=O)Cn2cnc3c(nc4n3CCCCC4)c2=O)cc1Cl,"inconclusive [quencher, full curve]",–
Cc1ccc(C(=O)OCc2cc(=O)n3nc(CC(C)C)sc3n2)cc1,"inconclusive [falling, full curve, poor fit]",–
Cc1cc2oc(=O)cc(CN3CCN(S(=O)(=O)c4cccs4)CC3)c2cc1C(C)C,active: 7.08 µM [quencher],–
CCOC(=O)N1CCC(NC(=O)c2cnn(-c3ccccc3)c2C2CCN(C(=O)OC(C)(C)C)CC2)CC1,"inconclusive [falling, full curve, poor fit]",–
Cc1ccc(/C=C/c2onc(C)c2S(=O)(=O)N2CCC(C(=O)NCc3ccco3)CC2)cc1,"inconclusive [falling, partial curve, poor fit]",–
CC1=C(C(=O)Nc2ccccc2)C(c2ccc(O)cc2)n2nc(-c3ccc(Cl)cc3)nc2N1 (configuration not stated),"inconclusive [falling, full curve, poor fit]",–
C[C@@](N)(Cc1ccc(O)c(O)c1)C(=O)O,"inconclusive [falling, full curve, poor fit]",–
CCSC1=N/C(=C\c2ccc(-c3ccccc3[N+](=O)[O-])o2)C(=O)S1,"inconclusive [falling, single point]",–
O=C(Nc1ccc(Nc2ccncc2)cc1)c1ccc(Nc2ccnc3ccc([N+](=O)[O-])cc23)cc1[N+](=O)[O-],"inconclusive [falling, full curve, poor fit]",–
O=C(c1ccc(F)cc1)N1CCN(CCc2ccncc2)CC1,–,inactive: -18.5%
Cc1cc(O)c2c(c1)C(=O)c1cccc(O)c1C2=O,inactive,–
CCCCn1c(NS(=O)(=O)c2ccccc2)c(S(=O)(=O)c2ccc(C)cc2)c2nc3ccccc3nc21,–,inactive: -2.91%
COc1ccccc1NC(=O)CCNS(=O)(=O)c1ccc2c(c1)CCN2C(=O)C1CC1,"inconclusive [falling, full curve, poor fit]",–
Cc1ccc2nc(NC(=O)c3ccc(Cn4cc(Cl)cn4)o3)sc2c1,–,inactive: -2.53%
COc1ccc(-n2ncc(C(=O)NCc3ccc4c(c3)OCO4)c2C2CCN(C(=O)OC(C)(C)C)CC2)cc1,"inconclusive [falling, full curve, poor fit]",–
Cc1ccc(NC(=O)CCCN2C(=O)/C(=C/C=C/c3ccccc3)SC2=S)cc1,–,inactive: -2.65%
Cc1ccc2c(c1)-c1c(cnn1CC(=O)N1CCN(c3cccc(C(F)(F)F)c3)CC1)CO2,–,inactive: -15.8%
CCOc1ccc(-n2c(=O)c3c4c(sc3n(CC(=O)NCCCOC)c2=O)CCCCC4)cc1,"inconclusive [falling, full curve, poor fit]",–
O=C(c1ccc2c(c1)N(Cc1ccc(Cl)cc1)C(=O)c1ccccc1S2=O)N1CCOCC1 (configuration not stated),"inconclusive [falling, full curve, poor fit]",–
Cc1cc(Cl)ccc1NC(=O)c1cc(S(=O)(=O)N2CCOCC2)cn1C,"inconclusive [falling, full curve, poor fit]",–
